Some of the results follow.
Tests used:
Assay in all cases: glycan array binding signal (z-score within array); higher = stronger binding
Details in all cases: glycan notation: IUPAC condensed, linker removed
[1] = biological target: Neu5Ac(a2-6)Gal(b1-4)GlcNAc(b1-2)Man(a1-3)[Gal(b1-4)GlcNAc(b1-2)Man(a1-6)]Man(b1-4)GlcNAc(b1-4)GlcNAc
Method in brief: (§1)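 The Consortium for Functional Glycomics database supplied 3228 glycan arrays, of which those lacking an available protein sequence were dropped. The binding signal, a within-array Z-score, was averaged across arrays of the same protein sequence and across linkers. Negative scores can be read as non-binding.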

[2] = biological target: Neu5Ac(a2-6)Gal(b1-4)GlcNAc(b1-2)Man(a1-3)[GlcNAc(b1-2)Man(a1-6)]Man(b1-4)GlcNAc(b1-4)GlcNAc
Method in brief: as §1

[3] = biological target: Neu5Ac(a2-6)Gal(b1-4)GlcNAc(b1-2)Man(a1-3)[GlcNAc(b1-2)Man(b1-4)GlcNAc(b1-2)Man(a1-6)]Man(b1-4)GlcNAc(b1-4)GlcNAc
Method in brief: as §1

[4] = biological target: Neu5Ac(a2-6)Gal(b1-4)GlcNAc(b1-2)Man(a1-3)[GlcNAc(b1-4)][Neu5Ac(a2-6)Gal(b1-4)GlcNAc(b1-2)Man(a1-6)]Man(b1-4)GlcNAc(b1-4)GlcNAc
Method in brief: as §1

[5] = biological target: Neu5Ac(a2-6)Gal(b1-4)GlcNAc(b1-2)Man(a1-3)[Man(a1-6)]Man(b1-4)GlcNAc(b1-4)GlcNAc
Method in brief: as §1

[6] = biological target: Neu5Ac(a2-6)Gal(b1-4)GlcNAc(b1-2)Man(a1-3)[Neu5Ac(a2-3)Gal(b1-4)GlcNAc(b1-2)Man(a1-6)]Man(b1-4)GlcNAc(b1-4)GlcNAc
Method in brief: as §1

[7] = biological target: Neu5Ac(a2-6)Gal(b1-4)GlcNAc(b1-2)Man(a1-3)[Neu5Ac(a2-6)Gal(b1-4)GlcNAc(b1-2)Man(a1-6)]Man(b1-4)GlcNAc(b1-4)GlcNAc
Method in brief: as §1

[8] = biological target: Neu5Ac(a2-6)Gal(b1-4)GlcNAc(b1-2)Man(a1-3)[Neu5Ac(a2-6)Gal(b1-4)GlcNAc(b1-2)Man(a1-6)]Man(b1-4)GlcNAc(b1-4)[Fuc(a1-6)]GlcNAc
Method in brief: as §1

[9] = biological target: Neu5Ac(a2-6)Gal(b1-4)GlcNAc(b1-2)Man(a1-6)Man(b1-4)GlcNAc(b1-4)GlcNAc
Method in brief: as §1

[10] = biological target: Neu5Ac(a2-6)Gal(b1-4)GlcNAc(b1-2)Man(a1-6)[Gal(b1-4)GlcNAc(b1-2)Man(a1-3)]Man(b1-4)GlcNAc(b1-4)GlcNAc
Method in brief: as §1

[11] = biological target: Neu5Ac(a2-6)Gal(b1-4)GlcNAc(b1-2)Man(a1-6)[GlcNAc(b1-2)Man(a1-3)]Man(b1-4)GlcNAc(b1-4)GlcNAc
Method in brief: as §1

[12] = biological target: Neu5Ac(a2-6)Gal(b1-4)GlcNAc(b1-2)Man(a1-6)[Man(a1-3)]Man(b1-4)GlcNAc(b1-4)GlcNAc
Method in brief: as §1

[13] = biological target: Neu5Ac(a2-6)Gal(b1-4)GlcNAc(b1-2)[Neu5Ac(a2-6)Gal(b1-4)GlcNAc(b1-4)]Man(a1-3)[GlcNAc(b1-4)][Neu5Ac(a2-6)Gal(b1-4)GlcNAc(b1-2)[Neu5Ac(a2-6)Gal(b1-4)GlcNAc(b1-6)]Man(a1-6)]Man(b1-4)GlcNAc(b1-4)GlcNAc
Method in brief: as §1

[14] = biological target: Neu5Ac(a2-6)Gal(b1-4)GlcNAc(b1-2)[Neu5Ac(a2-6)Gal(b1-4)GlcNAc(b1-4)]Man(a1-3)[GlcNAc(b1-4)][Neu5Ac(a2-6)Gal(b1-4)GlcNAc(b1-4)Man(a1-6)]Man(b1-4)GlcNAc(b1-4)GlcNAc
Method in brief: as §1

[15] = biological target: Neu5Ac(a2-6)Gal(b1-4)GlcNAc(b1-2)[Neu5Ac(a2-6)Gal(b1-4)GlcNAc(b1-6)]Man(a1-6)[Neu5Ac(a2-6)Gal(b1-4)GlcNAc(b1-2)Man(a1-3)][GlcNAc(b1-4)]Man(b1-4)GlcNAc(b1-4)GlcNAc
Method in brief: as §1

[16] = biological target: Neu5Ac(a2-6)Gal(b1-4)GlcNAc(b1-3)Gal(b1-3)GlcNAc
Method in brief: as §1

[17] = biological target: Neu5Ac(a2-6)Gal(b1-4)GlcNAc(b1-3)Gal(b1-4)GlcNAc
Method in brief: as §1

[18] = biological target: Neu5Ac(a2-6)Gal(b1-4)GlcNAc(b1-3)Gal(b1-4)GlcNAc(b1-2)Man(a1-3)[Neu5Ac(a2-6)Gal(b1-4)GlcNAc(b1-3)Gal(b1-4)GlcNAc(b1-2)Man(a1-6)]GalNAc
Method in brief: as §1

[19] = biological target: Neu5Ac(a2-6)Gal(b1-4)GlcNAc(b1-3)Gal(b1-4)GlcNAc(b1-3)Gal(b1-4)GlcNAc
Method in brief: as §1

[20] = biological target: Neu5Ac(a2-6)Gal(b1-4)GlcNAc(b1-3)Gal(b1-4)GlcNAc(b1-3)Gal(b1-4)GlcNAc(b1-2)Man(a1-3)[Neu5Ac(a2-6)Gal(b1-4)GlcNAc(b1-3)Gal(b1-4)GlcNAc(b1-3)Gal(b1-4)GlcNAc(b1-2)Man(a1-6)]GalNAc
Method in brief: as §1

[21] = biological target: Neu5Ac(a2-6)Gal(b1-4)GlcNAc(b1-3)Gal(b1-4)GlcNAc(b1-3)GalNAc
Method in brief: as §1

[22] = biological target: Neu5Ac(a2-6)Gal(b1-4)GlcNAc(b1-3)Gal(b1-4)GlcNAc(b1-3)[Neu5Ac(a2-6)Gal(b1-4)GlcNAc(b1-3)Gal(b1-4)GlcNAc(b1-6)]GalNAc
Method in brief: as §1

[23] = biological target: Neu5Ac(a2-6)Gal(b1-4)GlcNAc(b1-3)Gal(b1-4)GlcNAc(b1-6)[Gal(b1-3)]GalNAc
Method in brief: as §1

[24] = biological target: Neu5Ac(a2-6)Gal(b1-4)GlcNAc(b1-3)Gal(b1-4)[Fuc(a1-3)]GlcNAc(b1-3)Gal(b1-4)[Fuc(a1-3)]GlcNAc
Method in brief: as §1

[25] = biological target: Neu5Ac(a2-6)Gal(b1-4)GlcNAc(b1-3)GalNAc
Method in brief: as §1

[26] = biological target: Neu5Ac(a2-6)Gal(b1-4)GlcNAc(b1-3)[Neu5Ac(a2-6)Gal(b1-4)GlcNAc(b1-6)]GalNAc
Method in brief: as §1

[27] = biological target: Neu5Ac(a2-6)Gal(b1-4)GlcNAc(b1-6)GalNAc
Method in brief: as §1

[28] = biological target: Neu5Ac(a2-6)Gal(b1-4)GlcNAc(b1-6)[Gal(b1-3)GlcNAc(b1-3)]Gal(b1-4)Glc
Method in brief: as §1

[29] = biological target: Neu5Ac(a2-6)Gal(b1-4)GlcNAc(b1-6)[Gal(b1-3)]GalNAc
Method in brief: as §1

[30] = biological target: Neu5Ac(a2-6)Gal(b1-4)GlcNAc6S
Method in brief: as §1

Neu5Ac(a2-6)GalNAc = biological target: Neu5Ac(a2-6)GalNAc
Method in brief: as §1

[31] = biological target: Neu5Ac(a2-6)GalNAc(b1-4)GlcNAc
Method in brief: as §1

[32] = biological target: Neu5Ac(a2-6)GalNAc(b1-4)GlcNAc6S
Method in brief: as §1

[33] = biological target: Neu5Ac(a2-6)GlcNAc(b1-4)GlcNAc
Method in brief: as §1

[34] = biological target: Neu5Ac(a2-6)GlcNAc(b1-4)GlcNAc(b1-4)GlcNAc
Method in brief: as §1

Neu5Ac(a2-8)Neu5Ac = biological target: Neu5Ac(a2-8)Neu5Ac
Method in brief: as §1

[35] = biological target: Neu5Ac(a2-8)Neu5Ac(a2-3)Gal(b1-3)GalNAc(b1-4)[Neu5Ac(a2-3)]Gal(b1-4)Glc
Method in brief: as §1

[36] = biological target: Neu5Ac(a2-8)Neu5Ac(a2-3)Gal(b1-3)GalNAc(b1-4)[Neu5Ac(a2-8)Neu5Ac(a2-3)]Gal(b1-4)Glc
Method in brief: as §1

[37] = biological target: Neu5Ac(a2-8)Neu5Ac(a2-3)Gal(b1-4)Glc
Method in brief: as §1

[38] = biological target: Neu5Ac(a2-8)Neu5Ac(a2-3)Gal(b1-4)GlcNAc
Method in brief: as §1

[39] = biological target: Neu5Ac(a2-8)Neu5Ac(a2-3)[Gal(b1-3)GalNAc(b1-4)]Gal(b1-4)Glc
Method in brief: as §1

[40] = biological target: Neu5Ac(a2-8)Neu5Ac(a2-3)[GalNAc(b1-4)]Gal(b1-4)Glc
Method in brief: as §1

[41] = biological target: Neu5Ac(a2-8)Neu5Ac(a2-8)Neu5Ac
Method in brief: as §1

[42] = biological target: Neu5Ac(a2-8)Neu5Ac(a2-8)Neu5Ac(a2-3)Gal(b1-4)Glc
Method in brief: as §1

[43] = biological target: Neu5Ac(a2-8)Neu5Ac(a2-8)Neu5Ac(a2-3)[Gal(b1-3)GalNAc(b1-4)]Gal(b1-4)Glc
Method in brief: as §1

B1: AAL (Agrocybe aegerita), Q6WY08 (protein)
chain: MQGVNIYNISAGTSVDLAAPVTTGDIVTFFSSALNLNAGAGNPNNTTLNLFAENGAYLLHIAFRLQENVIIFNSRQPDGPWLVEQRVSDVANQFAGIDGKAMVTVFDHGDKYQVVINEKTVIQYTKQISGLTLSLSYNATEETSIFSTVVEAVTYTGLALEHHHHHH
- glycan array binding signal (z-score) [1]: -0.144
- glycan array binding signal (z-score) [2]: -0.154
- glycan array binding signal (z-score) [3]: 1.25
- glycan array binding signal (z-score) [4]: -0.168
- glycan array binding signal (z-score) [5]: -0.148
- glycan array binding signal (z-score) [6]: -0.098
- glycan array binding signal (z-score) [7]: -0.134
- glycan array binding signal (z-score) [8]: -0.131
- glycan array binding signal (z-score) [9]: -0.133
- glycan array binding signal (z-score) [10]: -0.151
- glycan array binding signal (z-score) [11]: -0.162
- glycan array binding signal (z-score) [12]: -0.148
- glycan array binding signal (z-score) [13]: -0.117
- glycan array binding signal (z-score) [14]: -0.148
- glycan array binding signal (z-score) [15]: -0.143
- glycan array binding signal (z-score) [16]: -0.136
- glycan array binding signal (z-score) [17]: -0.141
- glycan array binding signal (z-score) [18]: -0.148
- glycan array binding signal (z-score) [19]: -0.138
- glycan array binding signal (z-score) [20]: -0.114
- glycan array binding signal (z-score) [21]: -0.132
- glycan array binding signal (z-score) [22]: -0.138
- glycan array binding signal (z-score) [23]: -0.137
- glycan array binding signal (z-score) [24]: -0.141
- glycan array binding signal (z-score) [25]: -0.08
- glycan array binding signal (z-score) [26]: -0.162
- glycan array binding signal (z-score) [27]: -0.156
- glycan array binding signal (z-score) [28]: -0.129
- glycan array binding signal (z-score) [29]: -0.142
- glycan array binding signal (z-score) [30]: -0.142
- glycan array binding signal (z-score) (Neu5Ac(a2-6)GalNAc): -0.164
- glycan array binding signal (z-score) [31]: -0.166
- glycan array binding signal (z-score) [32]: -0.104
- glycan array binding signal (z-score) [33]: -0.154
- glycan array binding signal (z-score) [34]: -0.141
- glycan array binding signal (z-score) (Neu5Ac(a2-8)Neu5Ac): -0.146
- glycan array binding signal (z-score) [35]: 0.357
- glycan array binding signal (z-score) [36]: -0.138
- glycan array binding signal (z-score) [37]: -0.095
- glycan array binding signal (z-score) [38]: 0.029
- glycan array binding signal (z-score) [39]: -0.144
- glycan array binding signal (z-score) [40]: -0.108
- glycan array binding signal (z-score) [41]: -0.15
- glycan array binding signal (z-score) [42]: -0.143
- glycan array binding signal (z-score) [43]: -0.15

Reference: the supplement of paper PMC8728848
